This is an account of results in publication PMC4336329 (PLoS ONE, 2015).

Each structure is given as a SMILES string. Screen size: about 310,000 compounds; about 14,000 (4.5%) showed an effect of 50% or more. Effects have a minus sign here. The list shows a part of the results.
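Further: peak tail current of the secondary pulse compared with the same well before compound.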

The target of the assay is human ether-à-go-go-related gene (hERG) potassium channel (human, UniProt Q12809). Description: primary screen, population patch clamp on CHO cells stably expressing hERG.
human ether-à-go-go-related gene (hERG) potassium channel, sequence (Q12809 whole entry, looked up): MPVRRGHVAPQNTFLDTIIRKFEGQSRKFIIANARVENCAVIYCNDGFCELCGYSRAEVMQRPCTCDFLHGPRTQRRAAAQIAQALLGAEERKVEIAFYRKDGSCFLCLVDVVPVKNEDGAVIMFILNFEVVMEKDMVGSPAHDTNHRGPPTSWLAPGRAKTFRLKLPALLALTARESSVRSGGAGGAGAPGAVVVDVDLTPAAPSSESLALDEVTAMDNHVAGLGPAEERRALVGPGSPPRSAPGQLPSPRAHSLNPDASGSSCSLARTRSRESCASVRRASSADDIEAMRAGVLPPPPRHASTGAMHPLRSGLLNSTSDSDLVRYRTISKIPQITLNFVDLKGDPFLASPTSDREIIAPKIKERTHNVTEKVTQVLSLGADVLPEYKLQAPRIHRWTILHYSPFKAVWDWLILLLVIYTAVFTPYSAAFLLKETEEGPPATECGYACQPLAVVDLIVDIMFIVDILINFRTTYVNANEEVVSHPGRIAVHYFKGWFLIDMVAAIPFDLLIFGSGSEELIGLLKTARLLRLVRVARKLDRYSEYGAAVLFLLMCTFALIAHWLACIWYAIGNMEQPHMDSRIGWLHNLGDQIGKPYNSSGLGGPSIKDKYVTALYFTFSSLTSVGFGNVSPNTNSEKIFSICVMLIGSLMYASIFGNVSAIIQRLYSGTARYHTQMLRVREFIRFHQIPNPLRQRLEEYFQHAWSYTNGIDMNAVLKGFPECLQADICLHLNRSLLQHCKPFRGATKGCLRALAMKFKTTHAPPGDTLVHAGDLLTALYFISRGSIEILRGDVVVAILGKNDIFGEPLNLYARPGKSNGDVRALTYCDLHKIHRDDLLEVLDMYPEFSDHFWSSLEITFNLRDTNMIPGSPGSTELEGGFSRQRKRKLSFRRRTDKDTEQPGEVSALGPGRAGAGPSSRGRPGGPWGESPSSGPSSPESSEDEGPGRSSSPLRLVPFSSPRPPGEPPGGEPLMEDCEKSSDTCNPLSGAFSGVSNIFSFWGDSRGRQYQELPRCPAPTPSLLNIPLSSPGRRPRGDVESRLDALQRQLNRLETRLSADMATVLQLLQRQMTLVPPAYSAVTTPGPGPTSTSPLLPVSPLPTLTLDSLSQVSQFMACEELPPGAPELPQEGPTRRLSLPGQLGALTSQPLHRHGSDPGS
Turning to `Cc1cccc(NC(=S)NC2CCCCCC2)c1C`, the “hERG current change (%, negative = inhibition) at 10uM” value came out at 14.7%.
Under `COc1ccc2c(=O)c3c(=O)n(CCc4ccccc4)c(C(C)C)nc3oc2c1` stands 5.79%.
Under `COc1ccc(NC(=O)c2ccc3c(c2)N(C)CCS3)cc1` stands 2.65%; under `CC(CN1CCOCC1)OC(=O)c1ccc(C(C)(C)C)cc1.Cl` (centres unmarked), 4.47%; under `O=C(Nc1ccccc1N1CCCC1)c1cc2ccccc2o1`, 6.18%.
Under `O=C(CN1C(=O)c2ccccc2S1(=O)=O)c1cccc(Br)c1` stands 12.5%.
For `O=C(NCC(F)(F)F)c1nn(Cc2ccccc2)c(=O)c2ccccc12`, the “hERG current change (%, negative = inhibition) at 10uM” value is listed as 5.37%.
With `CNc1ccccc1C(C)(C)c1cn(-c2ccc([N+](=O)[O-])cc2)nn1`, the “hERG current change (%, negative = inhibition) at 10uM” value turned out to be 3.21%.
Under `COc1ccc(NC(=O)c2nc3nccc(C)n3n2)cn1` stands 6.23%; under `Br.Cc1ccc(C)c(C(=O)Cn2c(NCCO)nc3ccccc32)c1`, 6.12%; under `O=C(c1cn[nH]c1)c1cc(F)ccc1O`, -2.62%.
Under `CN(C)Cc1c(C(=O)N/N=C/CCc2ccccc2)nnn1-c1nonc1N` stands -31.1%; under `Cc1cccc(Nc2nc(C)cc(C)n2)c1.Cl`, 18.2%; under `COc1cc(NC(=S)NC(=O)c2c(OC)cccc2OC)ccc1NC(=O)c1cccs1`, -3.22%.
Under `CCOc1cc(/C=C/C(=O)OCC(=O)NC2CCS(=O)(=O)C2)ccc1OCc1ccccc1` (centres unmarked) stands 34.8%; under `CCOc1ccc(/C=N/NC(=O)c2cc(-c3cccn3C)n[nH]2)cc1`, 5.27%; under `O=C1CC[C@H](O)CCN1CCSc1ccc(Br)cc1`, -16.2%.
For the molecule `O=C1OC(Nc2ccc3ncccc3c2)c2ccccc21` (centres unmarked), the “hERG current change (%, negative = inhibition) at 10uM” value was 21.8%.
Under `Cn1c(SCC(=O)Nc2cccc(O)c2)nnc1-c1ccc(S(=O)(=O)N2CCOCC2)cc1` stands 9.99%; under `CCC(C)(C)NC(=O)CN(C(=O)CCC(=O)Nc1cc(C)ccn1)c1ccc2c(c1)OCO2`, -10.2%.
For the molecule `CC(C)(C)NC(=O)CN(C(=O)CS(=O)CC(=O)Nc1ccc(F)cc1)c1cccc(F)c1` (centres unmarked), the “hERG current change (%, negative = inhibition) at 10uM” value amounted to 1.86%.
For the molecule `O=C(Cn1cnc2c(nnn2-c2cccc(F)c2)c1=O)Nc1ccc2c(c1)OCCO2`, the “hERG current change (%, negative = inhibition) at 10uM” value was 13.4%.
Under `CCc1nnc(NS(=O)(=O)c2ccc(NC(=O)c3cc4ccccc4oc3=O)cc2)s1` stands 9.31%; under `O=[N+]([O-])c1ccc(Oc2ncccn2)cc1`, 4.28%.
Under `Cc1ccc(S(=O)(=O)NC(Cc2cnc[nH]2)C(=O)O)cc1` (centres unmarked) stands 17.8%.
Under `Cc1ccc(C(=O)COC(=O)CNC(=O)CNC(=O)c2ccc(C)cc2)cc1` stands -13.1%.
Consider `COc1cccc(NC(=O)CSc2ccc3nnc(CCNC(=O)c4ccccc4)n3n2)c1`, for which the “hERG current change (%, negative = inhibition) at 10uM” value was -19.4%.
Under `CN(C)CCNC(=O)NC(=O)c1ccc(Cl)cc1` stands -14.7%.
Under `CC(=O)NC(c1ccc(C(C)C)cc1)c1ccc2cccnc2c1O` (centres unmarked) stands 18.3%.
Under `O=C1c2ccccc2S(=O)(=O)N1CCOc1ccccc1` stands -7.6%.
In the case of `Cc1ccsc1/C=N/NC(=O)c1c[nH]c2ccccc12`, the “hERG current change (%, negative = inhibition) at 10uM” value is on record as 13.6%.
In the case of `CCn1c(SCC(=O)N(Cc2ccccc2)C2CCS(=O)(=O)C2)nc2ccccc2c1=O` (centres unmarked), the “hERG current change (%, negative = inhibition) at 10uM” value was -61%.
Under `O=C(/C=C\c1ccccc1)NCC(=O)N/N=C/c1ccc(O)cc1O` stands 9.48%; under `C=CCc1ccccc1OCC(O)CNC1CCCC1.Cl` (centres unmarked), 9.54%.
With `CCn1cnc2c(Nc3cc(F)cc(F)c3)nc(C#N)nc21`, the “hERG current change (%, negative = inhibition) at 10uM” value stood at 23.2%.
Under `CCC(=O)Nc1cccc(-c2nc3ncccc3o2)c1C` stands 15.6%; under `O=C(NCc1ccc2c(c1)OCO2)c1ccc(Cl)s1`, 5.61%; under `CSc1ccccc1NC(=O)c1cc(C)on1`, -3.32%.
Turning to `O=C(O)c1ccc2ccc3ccccc3c2c1`, the “hERG current change (%, negative = inhibition) at 10uM” value is on record as -0.225%.
Under `CC(=O)Nc1ccc(C(=O)NNC(=O)c2ccc(Cl)cc2)cc1` stands 19.5%; under `Cc1ccc(CN2CCN(/N=C/C=C/c3ccccc3[N+](=O)[O-])CC2)cc1`, -21.1%; under `CN(C)C(=O)c1sccc1Oc1ccc(F)cc1[N+](=O)[O-]`, 7.25%.
Under `O=C(CN1C(=O)c2ccccc2S1(=O)=O)Nc1ccon1` stands 20.4%; under `Cc1ccc(NC(=O)C2CC(=O)n3ncnc3N2)cc1C` (centres unmarked), 4.79%.
Under `CCc1nnc(NS(=O)(=O)c2ccc(NC(=O)COc3ccc(Cl)c(C)c3)cc2)s1` stands 14.2%.
Turning to `Nn1c(COc2ccccc2F)nnc1SCC(=O)NC1CCCC1`, the “hERG current change (%, negative = inhibition) at 10uM” value is reported as 10.3%.
Under `COc1ccc(CC(=O)Nc2ccc(-c3cn4ccccc4n3)cc2)cc1OC` stands 16.5%; under `O=C1/C(=C2/NCCN2C2CC(=O)N(c3ccccc3)C2=O)CC/C1=C\c1ccccc1` (centres unmarked), -16.5%; under `COc1ccccc1NCC(=O)n1nc(C)cc1C`, 29.8%.
Turning to `CCCNC(=S)NCCN1CCCCC1.O=C(O)C(=O)O`, the “hERG current change (%, negative = inhibition) at 10uM” value is given as 5.71%.
Under `Cc1nnc(NC(=O)Oc2ccccc2)s1` stands -13.9%; under `CS(=O)(=O)NCCn1ccc2ccccc21`, -14.4%.
Regarding `CCNC(=S)N1CCC(NC(=O)C2CCCCC2)CC1`, the “hERG current change (%, negative = inhibition) at 10uM” value is recorded as 7.4%.
Under `Cc1cccc(C)c1NC(=O)CNC(=O)c1c(C)nn(-c2ccccc2)c1C` stands 3.65%.
Under `O=C(c1ccoc1)N1CCC2(CCCN(Cc3ccc(F)c(F)c3)C2)C1` (centres unmarked) stands -27.1%; under `Cc1c(OCC(=O)N(C)C)ccc2c(-c3ccccc3)cc(=O)oc12`, -7.87%; under `CC1CCN(S(=O)(=O)c2ccc(C(=O)Nc3nnc(C4=COCCO4)o3)cc2)CC1`, -1.13%.
Turning to `Cc1nn(CCC#N)c(NC(=O)c2ccccc2)c1P(=O)(Nc1ccc(Br)cc1)N1CCOCC1` (centres unmarked), the “hERG current change (%, negative = inhibition) at 10uM” value was determined as 20.6%.
Take `O=C(COc1ncnc2ccc(Br)cc12)NC1CCCC1`: the “hERG current change (%, negative = inhibition) at 10uM” value worked out at 2.91%.
Under `COc1ccc(C(=O)C2CCCN(Cc3cccc(C)n3)C2)c(OC)c1` (centres unmarked) stands -76.2%.
Under `c1ccc2c(c1)nc1n2CCS1` stands 11.3%; under `CC(C)N=C(NS(=O)(=O)c1ccc(Br)cc1)c1ccc(Cl)cc1`, 4.83%.
Under `Cc1ccc(-c2c(C(=O)NCc3ccccc3)oc(=O)c3ccccc23)cc1` stands 1.98%.
For the molecule `O=C(NCCc1nc2ccccc2[nH]1)Nc1ccccc1`, the “hERG current change (%, negative = inhibition) at 10uM” value was -6.39%.
`CC(=O)NC12CC3CC(C1)CC(C(=O)Nc1c(C)n(C)n(-c4ccccc4)c1=O)(C3)C2`: the “hERG current change (%, negative = inhibition) at 10uM” value is 8.06%.
Under `CCOC(=O)c1ccc(N2C(=O)CC(N(Cc3ccc4c(c3)OCO4)C(=O)Nc3ccccc3)C2=O)cc1` (centres unmarked) stands -3.13%; under `CC(C)c1cc(C(=O)N2CCCC(Nc3ccc(F)cc3)C2)n[nH]1` (centres unmarked), 8.32%.
Under `CSc1ncccc1C(=O)OCn1nnc2ccccc2c1=O` stands 6.19%.
As for `COc1ccc2c(CC(=O)N3CCN(S(=O)(=O)c4cccs4)CC3)coc2c1`, the “hERG current change (%, negative = inhibition) at 10uM” value was -13.4%.
In the case of `CCN1CCCC1CNC(=O)c1c(O)c2c([nH]c1=O)CCCC2` (centres unmarked), the “hERG current change (%, negative = inhibition) at 10uM” value was -8.7%.
For `CCC(C)(C)NC(=O)C1CC(=O)N(CCc2ccc(F)cc2)C1` (centres unmarked), the “hERG current change (%, negative = inhibition) at 10uM” value is on record as 16.7%.
Under `COC(=O)c1ccc(C(=O)OC)c(NC(=O)CCc2ccc(C)o2)c1` stands 9%; under `CCCNC(=O)CN(c1ccc(F)c(Cl)c1)S(C)(=O)=O`, 14.4%.
Under `CCN(CC)C(=O)CSc1nnc(-c2ccccn2)n1Cc1ccccc1` stands -25.1%; under `Clc1ccc(OCCN2CCCCC2)cc1Cl.O=C(O)C(=O)O`, -42.1%.
Under `COc1cc(/C=C/CO)cc(OC)c1O[C@@H]1O[C@H](CO)[C@@H](O)[C@H](O)[C@H]1O` stands 21.3%.
Take `CN1C(=O)C(C)(C)c2cc(S(=O)(=O)N3CCC(C(=O)Nc4ccc(Cl)cc4)CC3)ccc21`: the “hERG current change (%, negative = inhibition) at 10uM” value is recorded as 10%.
In the case of `c1ccc2[nH]c(-c3cscn3)nc2c1`, the “hERG current change (%, negative = inhibition) at 10uM” value is listed as 10.3%.
Regarding `CN(C)S(=O)(=O)c1cccc(C(=O)NCC(C)(C)CNC(=O)c2cccc(S(=O)(=O)N(C)C)c2)c1`, the “hERG current change (%, negative = inhibition) at 10uM” value is reported as -17.4%.
Under `CCN(C(=O)c1ccco1)C1C2CC3CC(C2)CC1C3` (centres unmarked) stands -12%.
On to `O=C(NCCc1ccccc1)c1ccc(NS(=O)(=O)c2ccc3[nH]c(=O)[nH]c3c2)cc1`, for which the “hERG current change (%, negative = inhibition) at 10uM” value turned out to be 8.53%.
Regarding `CCOCCCNC(=O)C1CCCN1S(=O)(=O)c1ccc(Cl)cc1` (centres unmarked), the “hERG current change (%, negative = inhibition) at 10uM” value is on record as 6.65%.
Under `CCN(CC)S(=O)(=O)c1ccc(C(C)NC(=O)C2CCCN2C(=O)c2cccs2)cc1` (centres unmarked) stands -15.5%; under `COC/C=C/C1=CC2=CC(=O)C(C)(OC(=O)C3CCCC3)C(=O)C2=CO1` (centres unmarked), -1.2%.
Under `COC(=O)c1ccccc1NC(=O)C1CC(=O)N(C2CCCCC2)C1` (centres unmarked) stands -16.7%; under `Cc1ccc(Nc2nc(C)cc(C)c2C(N)=O)cc1`, 6.38%; under `COc1ccccc1NC(=O)CSc1nnc(COc2ccccc2C)o1`, -8.37%.
On to `COc1ccccc1NC(=O)c1ccc(S(=O)(=O)N2CCC(C)CC2)cc1`, for which the “hERG current change (%, negative = inhibition) at 10uM” value amounted to 2.25%.
Consider `CCCCNC(=S)N/N=C/c1ccc(OCC(=O)Nc2c(C)cc(C)cc2C)c(OC)c1`, for which the “hERG current change (%, negative = inhibition) at 10uM” value worked out at 11%.
